The whole screen tested about 310,000 compounds, of which about 14,000 (4.5%) showed an effect of 50% or more. The effect is printed as a negative number. The list shows a part of the results.
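Also: peak tail current of the secondary pulse compared with the same well before compound.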

The assay deals with human ether-à-go-go-related gene (hERG) potassium channel (human, UniProt Q12809). Briefly: primary screen, population patch clamp on CHO cells stably expressing hERG.
Chain of human ether-à-go-go-related gene (hERG) potassium channel (Q12809 whole entry, looked up): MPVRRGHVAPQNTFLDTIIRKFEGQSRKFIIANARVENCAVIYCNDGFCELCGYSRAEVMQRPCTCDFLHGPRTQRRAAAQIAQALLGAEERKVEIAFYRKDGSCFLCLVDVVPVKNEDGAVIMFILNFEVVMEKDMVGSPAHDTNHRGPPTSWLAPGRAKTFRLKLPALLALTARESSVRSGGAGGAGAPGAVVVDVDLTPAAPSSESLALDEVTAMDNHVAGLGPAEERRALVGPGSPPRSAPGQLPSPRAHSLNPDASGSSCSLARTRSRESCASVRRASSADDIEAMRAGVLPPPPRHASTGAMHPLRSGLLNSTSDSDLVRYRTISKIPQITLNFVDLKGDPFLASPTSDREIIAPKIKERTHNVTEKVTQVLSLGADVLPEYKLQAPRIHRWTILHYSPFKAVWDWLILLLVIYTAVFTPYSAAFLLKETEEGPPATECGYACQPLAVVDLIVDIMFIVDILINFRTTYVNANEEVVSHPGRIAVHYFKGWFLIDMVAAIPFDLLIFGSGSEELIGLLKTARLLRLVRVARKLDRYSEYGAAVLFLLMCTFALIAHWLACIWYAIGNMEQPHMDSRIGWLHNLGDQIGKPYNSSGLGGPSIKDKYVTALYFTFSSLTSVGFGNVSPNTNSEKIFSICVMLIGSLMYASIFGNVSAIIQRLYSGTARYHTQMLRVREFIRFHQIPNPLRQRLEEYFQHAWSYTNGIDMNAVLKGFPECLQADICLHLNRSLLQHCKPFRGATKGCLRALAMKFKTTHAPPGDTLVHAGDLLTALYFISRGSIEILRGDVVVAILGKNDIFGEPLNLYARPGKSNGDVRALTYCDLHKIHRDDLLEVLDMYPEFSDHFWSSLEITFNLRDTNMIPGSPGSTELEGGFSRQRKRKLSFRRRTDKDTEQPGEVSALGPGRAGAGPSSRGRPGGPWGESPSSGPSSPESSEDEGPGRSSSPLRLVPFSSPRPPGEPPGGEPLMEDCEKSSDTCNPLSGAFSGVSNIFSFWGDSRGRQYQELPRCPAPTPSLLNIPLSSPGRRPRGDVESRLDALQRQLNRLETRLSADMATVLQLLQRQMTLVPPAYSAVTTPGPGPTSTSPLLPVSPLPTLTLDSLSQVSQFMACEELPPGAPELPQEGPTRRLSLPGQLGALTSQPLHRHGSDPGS
Turning to `Br.CCCn1c(=N)n(CC(=O)c2ccc(Cl)cc2)c2ccccc21`, the “hERG current change (%, negative = inhibition) at 10uM” value is -53%.

Take `CSC1=C(C#N)C(c2ccccc2Cl)C(C(=O)c2cccs2)C(O)(C(F)(F)F)N1` (stereo not drawn): the “hERG current change (%, negative = inhibition) at 10uM” value was -9.6%.

As for `COc1ccc2[nH]c(C)c(CCN3CCC(=O)C(C)C3C)c2c1.Cl` (stereo not drawn), the “hERG current change (%, negative = inhibition) at 10uM” value is -21.5%.

As to `COc1ccc(C2C(C(=O)N3CCOCC3)CCC(=O)N2c2cc(OC)c(OC)c(OC)c2)cc1` (stereo not drawn), the “hERG current change (%, negative = inhibition) at 10uM” value is 17%.

Consider `COC(=O)CCc1c(C)c(C(=O)c2cc(OC)c(OC)c(OC)c2)c2ccccn12`, for which the “hERG current change (%, negative = inhibition) at 10uM” value is on record as -34.2%.

As to `CCOc1ccccc1NC(=O)CN(c1ccc(C)cc1)S(=O)(=O)c1c(C)noc1C`, the “hERG current change (%, negative = inhibition) at 10uM” value was -7.79%.

Take `O=C1CCC(C(=O)N(c2ccccc2)C2(C(=O)NC3CCCCC3)CCCCC2)N1` (stereo not drawn): the “hERG current change (%, negative = inhibition) at 10uM” value is 3.99%.

With `CSc1nc2nccc(-c3ccc(Oc4ccccc4)cc3)n2n1`, the “hERG current change (%, negative = inhibition) at 10uM” value was -6.04%.

For `Cc1ccc(C)c(CN2CCC(n3nnc4cc(F)ccc43)CC2)c1`, the “hERG current change (%, negative = inhibition) at 10uM” value was -21.2%.

Take `Cc1cc(C)c(C)c(S(=O)(=O)N2CCC(C(=O)NCc3ccco3)CC2)c1C`: the “hERG current change (%, negative = inhibition) at 10uM” value is -43.5%.

As to `C=CCN(CC=C)C(=O)COC(=O)c1n[nH]c2ccccc12`, the “hERG current change (%, negative = inhibition) at 10uM” value is -12%.

As for `CCc1c(O)nc(SCC(=O)Nc2nc3ccccc3s2)n(-c2ccccc2)c1=O`, the “hERG current change (%, negative = inhibition) at 10uM” value amounted to 5.52%.

As for `CCCCc1nc2ccccc2c(NC(=O)CNC(C)(C)C)c1CCC.O=C(O)C(=O)O`, the “hERG current change (%, negative = inhibition) at 10uM” value is -18.1%.

`O=C(NC1CCCCC1)N(CCO)Cc1cc2cc3c(cc2[nH]c1=O)OCCO3`: the “hERG current change (%, negative = inhibition) at 10uM” value worked out at 11.1%.

On to `O=C(NCc1ccc2c(c1)OCO2)c1cc(-n2cnnc2)ccc1Cl`, for which the “hERG current change (%, negative = inhibition) at 10uM” value is listed as -22.5%.

As for `COc1ccc(CCNC(=O)/C(=C/c2cccnc2)NC(=O)c2ccccc2)cc1`, the “hERG current change (%, negative = inhibition) at 10uM” value was -47.2%.

As for `CN(c1cccc(NC(=O)c2ccc(C(C)(C)C)cc2)c1)S(C)(=O)=O`, the “hERG current change (%, negative = inhibition) at 10uM” value is listed as -44.5%.

In the case of `COc1ccc(CNC(=O)Cn2cc(C(F)(F)F)ccc2=O)cc1`, the “hERG current change (%, negative = inhibition) at 10uM” value stood at 4.41%.

Regarding `Nc1ncncc1-c1ccc(Cl)cc1`, the “hERG current change (%, negative = inhibition) at 10uM” value was determined as 1.28%.

With `COc1ccc(Cl)cc1NC(=O)c1cc(-c2ccccc2O)n[nH]1`, the “hERG current change (%, negative = inhibition) at 10uM” value is 6.66%.

For `Oc1c(/C=C/C=C/C=Nc2ccccc2)sc(=S)n1Cc1ccccc1`, the “hERG current change (%, negative = inhibition) at 10uM” value is reported as -5.14%.

Regarding `O=C(CN1CCN(c2ccccn2)CC1)N1CCc2ccccc21`, the “hERG current change (%, negative = inhibition) at 10uM” value was 0.247%.

Take `COc1ccccc1CNCC(=O)Nc1ccc(N2CCOCC2)cc1.O=C(O)C(=O)O`: the “hERG current change (%, negative = inhibition) at 10uM” value turned out to be 1.57%.

In the case of `CCC(Oc1ccccc1)C(=O)Nc1nnc(S(=O)(=O)N2CCCCC2)s1` (stereo not drawn), the “hERG current change (%, negative = inhibition) at 10uM” value is given as 12.8%.

Values taken from paper PMC4336329 (PLoS ONE, 2015).
